Laboratory results published in the supplement of paper PMC10338343.
± gives the standard deviation. The full ranking holds about 6,600 sequences; the median of “pre-steady-state target cleavage rate” is about 0.07, and the highest 2% start at about 0.72. Only a part is listed here, and it is no random draw.

tested on: MIWI (PIWIL1) piRISC loaded with Kctd7 piRNA (30 nt); experiment: pre-steady-state target cleavage rate (min^-1); MIWI and MILI are mouse PIWI proteins and EfPiwi is from a freshwater sponge; tags in brackets are library labels; higher = faster piRNA-guided slicing of the target; details: guide: Kctd7 piRNA 5'p-UGUUAAUCUCUCAGAGAAGGUGACAGUGAU; auxiliary factor: 500 nM mouse GTSF1
Method in brief: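 Using HEPES–potassium acetate buffer at 33 °C, 1 nM active affinity-purified piRISC with a single synthetic guide was mixed with 0.1 nM transcribed, DNA-blocked target RNA library for 0–8 or 0–960 min, with or without 500 nM GTSF1 partner protein. Uncleaved targets were sequenced and normalised to depth and to weakly complementary targets, and three trials were pooled with k3 capped at 0.0001 min^-1. A burst-and-steady-state fit gave the pre-steady-state cleavage rate.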

| Sequence | pre-steady-state target cleavage rate |
| --- | --- |
| UUCACUGUCUGGUUCUCUGAGAGAUUAACA | 0.179 ± 0.018 |
| UAGUCUGUUCACCUUCUCUGAGAGAUUAACA | 0.651 ± 0.04 |
| UUCACUGAGUCCUUCUCUGAGAGAUUUUGA | 0.025 ± 0.0082 |
| UAGUGACACACCUUCUCUGAGAGAUUCAACA | 0.417 ± 0.087 |
| UAGUGACACACCUUCUCUGACAGAUUAUCA | 0.0119 ± 0.0057 |
| UAGUGAGUCACCUUCUCUGAGAGAAUUUGA | 0.106 ± 0.033 |
| UAGUGACAGAGCUUCACUGAGAGAUUAACA | 0.00847 ± 0.0032 |
| UACACUCUCACCUUCUCUGAGAGAUUAAGA | 0.0601 ± 0.016 |
| UACACUGUCACCUUCUGAGAGAGAUAUUGA | 0.00634 ± 0.006 |
| UAGUGACUCACCUUCUCUGAGAGAGUUAACA | 0.257 ± 0.034 |
| UAGUGUGUCACCUUCUGUGAGAGAUUAACA | 0.567 ± 0.026 |
| UAGACUGUGUCCUUCUCUGAGAGAUUAAGA | 0.14 ± 0.026 |
| UUCACUGUCACCUUCUCUGACAGAUUAAGA | 0.0101 ± 0.0052 |
| UAGUGACACACGUUCUCUGAGAGAUUAAGA | 0.0472 ± 0.0077 |
| UAGUGUGUCAGCCUUCUCUGAGAGAUUAACA | 0.154 ± 0.016 |
| AUCAGCUGUCACCUUCUCUGAGAGAUUAACA | 0.792 ± 0.043 |
| UUCACACACACCUUCUCUGAGAGAUAUUGA | 0.0849 ± 0.028 |
| UAGUGACAGACCUUAUCUGAGAGAUUAACA | 0.0217 ± 0.0049 |
| AUGACUCUCACCUUCUCUGAGAGAUUAACA | 0.274 ± 0.023 |
| UAGACUGUUCACCUUCUCUGAGAGAUUAACA | 0.771 ± 0.043 |
| UAGACUGUCACCAUCUCUGAGAGAUUAAGA | 0.112 ± 0.018 |
| UAGUGACUCACCUACUCUGAGAGUUUAACA | 0.0954 ± 0.014 |
| AUGACUGUCACCUUCUCUGAGAGAUUAUGA | 0.0921 ± 0.015 |
| UACACUGUCACCUUCACUGAGAGAUUUUGA | 0.302 ± 0.099 |

| Sequence | pre-steady-state target cleavage rate |
| --- | --- |
| UAGUGUGUCACCUUCUCUGAGACUUUAUGA | 0.00826 ± 0.0044 |
| UAGUCUGUCACCUUCUCUGAGAGAUCAACA | 0.243 ± 0.03 |
| UAGUGAGUCACCUACUCAGAGAGAUUAACA | 0.121 ± 0.0098 |
| UAGUCUGUGACCUUCUCUGAGAGAUUUUGA | 0.00421 ± 0.0027 |
| UAGUGUGUGACCUUCUCUGAGAGAUUAUGA | 0.0228 ± 0.0075 |
| UAGUGACAGUGCUUCUCUGAGAGAUUAAA | 0.00418 ± 0.0021 |
| UAGUGAGUCACCUUGACUGAGAGAUUAAGA | 0.00365 ± 0.0035 |
| UAGUCUCUCACCUUGUCUGAGAGAUUAACA | 0.0135 ± 0.0038 |
| UACACUGUCACCUUCUCUAGAGAUUAACA | 0.141 ± 0.018 |
| UAGACUGUCACCUUCUCUGAGAGAUUAAA | 0.141 ± 0.018 |
| UAGUGUGACACCUUCUCUGAGUGAUUAACA | 0.0256 ± 0.0052 |
| UAGACAGACACCUUCUCUGAGAGAUUAACA | 0.572 ± 0.035 |
| UAGUGAGUCACCUUGUCUGACAGAUUAACA | 0.165 ± 0.025 |
| UAGUGACUCACCAUCUGUGAGAGAUUAACA | 0.0661 ± 0.016 |
| UAGUCUGUCACCUUCUCUGUCAGAUUAACA | 0.0105 ± 0.0028 |
| UAGUGAGUCACCUUGUCUGAGACAUUAACA | 0.125 ± 0.031 |
| UUCACUGUCACCUUCUGUGAGAGUUUAACA | 0.212 ± 0.035 |
| UUCACUGUCACCGUUCUCUGAGAGAUUAACA | 0.729 ± 0.032 |
| UUCACUGUCACCUUCUCCGAGAGAUUAACA | 0.323 ± 0.045 |
| UUCACUGUCAGCAUCUCUGAGAGAUUAACA | 0.532 ± 0.042 |
| UAGUGACAGACCUUCACUGAGAGAUUUACA | 0.0132 ± 0.0048 |
| AUCACUGUCACCUACUCUGAGAGAUUAACA | 0.699 ± 0.047 |
| UAGUGACAGUCCUUCACUGAGAGAUUAUCA | 0.0128 ± 0.0044 |
| UAGACUGUCACCUUGUCUGAGAGUUUAACA | 0.27 ± 0.049 |

| Sequence | pre-steady-state target cleavage rate |
| --- | --- |
| AUCACUGUCACCUUCUCUGAGACUUUAUGA | 0.00528 ± 0.0036 |
| UAGUCUGUGACCUUCUCUCAGAGAUUAACA | 0.0779 ± 0.0048 |
| UAGACUGACACCUUCUCUGUGAGAUUAACA | 0.207 ± 0.013 |
| UAGUGUGUCACCUUCUCUGAAGAGAUUAACA | 0.00762 ± 0.0051 |
| UAGACUGUCACGUUCUCUGAGAGAUUAUCA | 0.174 ± 0.032 |
| UACACUGACACCUUCUCUGAGAGAUUUACA | 0.26 ± 0.047 |
| UUCACUGUCUACCUUCUCUGAGAGAUUAACA | 0.208 ± 0.022 |
| UAGUGAGUCACCUUCUCAGACAGAUUAACA | 0.0874 ± 0.012 |
| UAGUGACUCACCUUCUCUCUGAGAUUAACA | 0.00487 ± 0.0025 |
| UAGUGAGUCACGUUGUCUGAGAGAUUAACA | 0.271 ± 0.019 |
| UAGUGACAGACCUUCUCUGUGAGAUUAACA | 0.0331 ± 0.0061 |
| UUCACUGUCACCUUCACUGAGUGAUUAACA | 0.0312 ± 0.0058 |
| UAGACUGUGACCUUCUCUGAGAGAUUAUGA | 0.0913 ± 0.021 |
| UAGUGACUCACCUUCUCUGACUGAUUAACA | 0.00516 ± 0.0026 |
| UAGUGAGUCACCUAGACUGAGAGAUUAACA | 0.0104 ± 0.0023 |
| UAGACUGUGUGCUUCUCUGAGAGAUUAUGA | < 0.0001 |
| UAGACUGUCACCUUCUCUGUGAGAUUAUGA | 0.0182 ± 0.0051 |
| UUCACUGUCACGUUCUCUGACAGAUUAACA | 0.0793 ± 0.011 |
| AUCACUGUCACCUAGUCUGAGAGAUUAAGA | 0.141 ± 0.026 |
| AUGACUGUCACCUUCUCUGAGAGAAUAACA | 0.381 ± 0.061 |
| UACACUGUCACCUUCUCCGAGAGAUUAACA | 0.351 ± 0.051 |
| UAGUCUGUCAGCCUUCUCUGAGAGAUUAACA | 0.204 ± 0.018 |
| UAGACUGUCACCUUCUGUGACAGAUUAACA | 0.0523 ± 0.011 |
| AUCACUGUCACCUUCUCAGAGUGAUUAACA | 0.0228 ± 0.0053 |
